# Assay results from the supplement of paper PMC8728848.
# Some of the results follow.
# B1: Gal 7 (Homo sapiens) (protein)
# chain: MSNVPHKSSLPEGIRPGTVLRIRGLVPPNASRFHVNLLCGEEGGSDAALHFNPRLDTSEVVFNSKEGGSWGREESGPGVPFGRGQPFEVLIIASDDGFKAVVGDAQYHHFRHRLPLARVRLVEVGGDVQLDSVRIF
# Legend:
# Assay in all cases: glycan array binding signal (z-score within array); higher = stronger binding
# Details in all cases: glycan notation: IUPAC condensed, linker removed; mutation: R74S
# [1] = molecular target: Gal(b1-4)GlcNAc(b1-3)Gal(b1-4)GlcNAc(b1-3)[Gal(b1-4)GlcNAc(b1-3)Gal(b1-4)GlcNAc(b1-6)]GalNAc
# How it was run: (§1)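 Glycan array data were curated from 3228 arrays in the Consortium for Functional Glycomics database and kept only where the protein sequence was available. Glycan names were converted to IUPAC-condensed notation, and columns mapping to the same glycan were averaged. The binding signal is a within-array Z-score, averaged across arrays of the same protein sequence at different concentrations or buffers and across linkers. Negative Z-scores can be read as non-binding.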
# [2] = molecular target: Gal(b1-4)GlcNAc(b1-3)Gal(b1-4)GlcNAc(b1-6)[Gal(b1-3)]GalNAc
# How it was run: as §1
# [3] = molecular target: Gal(b1-4)GlcNAc(b1-3)Gal(b1-4)[Fuc(a1-3)]GlcNAc(b1-3)Gal(b1-4)[Fuc(a1-3)]GlcNAc
# How it was run: as §1
# [4] = molecular target: Gal(b1-4)GlcNAc(b1-3)GalNAc
# How it was run: as §1
# [5] = molecular target: Gal(b1-4)GlcNAc(b1-3)[Fuc(a1-3)GlcNAc(b1-6)]Gal(b1-4)Glc
# How it was run: as §1
# [6] = molecular target: Gal(b1-4)GlcNAc(b1-3)[Gal(b1-4)GlcNAc(b1-6)]Gal(b1-4)GlcNAc
# How it was run: as §1
# [7] = molecular target: Gal(b1-4)GlcNAc(b1-3)[GlcNAc(b1-6)]Gal(b1-4)GlcNAc
# How it was run: as §1
# [8] = molecular target: Gal(b1-4)GlcNAc(b1-6)Gal(b1-4)GlcNAc
# How it was run: as §1
# [9] = molecular target: Gal(b1-4)GlcNAc(b1-6)GalNAc
# How it was run: as §1
# [10] = molecular target: Gal(b1-4)GlcNAc(b1-6)[Gal(b1-3)]GalNAc
# How it was run: as §1
# [11] = molecular target: Gal(b1-4)GlcNAc(b1-6)[Gal(b1-4)GlcNAc(b1-3)]GalNAc
# How it was run: as §1
# Gal(b1-4)GlcNAc6P = molecular target: Gal(b1-4)GlcNAc6P
# How it was run: as §1
# Gal(b1-6)Gal = molecular target: Gal(b1-6)Gal
# How it was run: as §1
# Gal3S(b1-3)GalNAc = molecular target: Gal3S(b1-3)GalNAc
# How it was run: as §1
# Gal3S(b1-3)GlcNAc = molecular target: Gal3S(b1-3)GlcNAc
# How it was run: as §1
# [12] = molecular target: Gal3S(b1-3)[Fuc(a1-4)]GlcNAc
# How it was run: as §1
# Gal3S(b1-4)Glc = molecular target: Gal3S(b1-4)Glc
# How it was run: as §1
# Gal3S(b1-4)Glc6S = molecular target: Gal3S(b1-4)Glc6S
# How it was run: as §1
# Gal3S(b1-4)GlcNAc = molecular target: Gal3S(b1-4)GlcNAc
# How it was run: as §1
# [13] = molecular target: Gal3S(b1-4)[Fuc(a1-3)]Glc6S
# How it was run: as §1
# [14] = molecular target: Gal3S(b1-4)[Fuc(a1-3)]GlcNAc
# How it was run: as §1
# [15] = molecular target: Gal3S(b1-4)[Fuc(a1-3)]GlcNAc6S
# How it was run: as §1
# Gal3S4S(b1-4)GlcNAc = molecular target: Gal3S4S(b1-4)GlcNAc
# How it was run: as §1
# Gal3S6S(b1-4)GlcNAc = molecular target: Gal3S6S(b1-4)GlcNAc
# How it was run: as §1
# Gal3S6S(b1-4)GlcNAc6S = molecular target: Gal3S6S(b1-4)GlcNAc6S
# How it was run: as §1
# Gal4S(b1-4)GlcNAc = molecular target: Gal4S(b1-4)GlcNAc
# How it was run: as §1
# Gal4S6S(b1-4)GlcNAc = molecular target: Gal4S6S(b1-4)GlcNAc
# How it was run: as §1
# Gal6P(b1-4)GlcNAc = molecular target: Gal6P(b1-4)GlcNAc
# How it was run: as §1
# Gal6S(b1-3)GlcNAc = molecular target: Gal6S(b1-3)GlcNAc
# How it was run: as §1
# Gal6S(b1-3)GlcNAc6S = molecular target: Gal6S(b1-3)GlcNAc6S
# How it was run: as §1
# Gal6S(b1-4)Glc = molecular target: Gal6S(b1-4)Glc
# How it was run: as §1
# Gal6S(b1-4)Glc6S = molecular target: Gal6S(b1-4)Glc6S
# How it was run: as §1
# Gal6S(b1-4)GlcNAc = molecular target: Gal6S(b1-4)GlcNAc
# How it was run: as §1
# Gal6S(b1-4)GlcNAc6S = molecular target: Gal6S(b1-4)GlcNAc6S
# How it was run: as §1
# GalNAc(a1-3)Gal = molecular target: GalNAc(a1-3)Gal
# How it was run: as §1
# GalNAc(a1-3)GalNAc = molecular target: GalNAc(a1-3)GalNAc
# How it was run: as §1
# [16] = molecular target: GalNAc(a1-3)GalNAc(b1-3)Gal(a1-4)Gal(b1-4)Glc
# How it was run: as §1
# [17] = molecular target: GalNAc(a1-3)GalNAc(b1-3)Gal(a1-4)Gal(b1-4)GlcNAc
# How it was run: as §1
# GalNAc(b1-3)Gal = molecular target: GalNAc(b1-3)Gal
# How it was run: as §1
# [18] = molecular target: GalNAc(b1-3)Gal(a1-4)Gal(b1-4)GlcNAc
# How it was run: as §1
# [19] = molecular target: GalNAc(b1-3)Gal(a1-4)Gal(b1-4)GlcNAc(b1-3)Gal(b1-4)Glc
# How it was run: as §1
# [20] = molecular target: GalNAc(b1-3)Gal(a1-6)Gal(b1-4)Glc
# How it was run: as §1
# GalNAc(b1-3)GalNAc = molecular target: GalNAc(b1-3)GalNAc
# How it was run: as §1
# GalNAc(b1-3)GlcNAc = molecular target: GalNAc(b1-3)GlcNAc
# How it was run: as §1
# GalNAc(b1-4)Gal(b1-4)Glc = molecular target: GalNAc(b1-4)Gal(b1-4)Glc
# How it was run: as §1
binder,measurement,setting,value
B1,glycan array binding signal (z-score),[1],0.433
same,glycan array binding signal (z-score),[2],-0.074
same,glycan array binding signal (z-score),[3],-0.27
same,glycan array binding signal (z-score),[4],-0.281
same,glycan array binding signal (z-score),[5],0.007
same,glycan array binding signal (z-score),[6],-0.52
same,glycan array binding signal (z-score),[7],0.58
same,glycan array binding signal (z-score),[8],-0.72
same,glycan array binding signal (z-score),[9],-0.373
same,glycan array binding signal (z-score),[10],0.055
same,glycan array binding signal (z-score),[11],-0.588
same,glycan array binding signal (z-score),Gal(b1-4)GlcNAc6P,-0.471
same,glycan array binding signal (z-score),Gal(b1-6)Gal,-0.328
same,glycan array binding signal (z-score),Gal3S(b1-3)GalNAc,-0.084
same,glycan array binding signal (z-score),Gal3S(b1-3)GlcNAc,0.311
same,glycan array binding signal (z-score),[12],0.757
same,glycan array binding signal (z-score),Gal3S(b1-4)Glc,-0.03
same,glycan array binding signal (z-score),Gal3S(b1-4)Glc6S,0.166
same,glycan array binding signal (z-score),Gal3S(b1-4)GlcNAc,0.004
same,glycan array binding signal (z-score),[13],0.633
same,glycan array binding signal (z-score),[14],-0.001
same,glycan array binding signal (z-score),[15],0.381
same,glycan array binding signal (z-score),Gal3S4S(b1-4)GlcNAc,-0.408
same,glycan array binding signal (z-score),Gal3S6S(b1-4)GlcNAc,-0.38
same,glycan array binding signal (z-score),Gal3S6S(b1-4)GlcNAc6S,-0.496
same,glycan array binding signal (z-score),Gal4S(b1-4)GlcNAc,-0.406
same,glycan array binding signal (z-score),Gal4S6S(b1-4)GlcNAc,-0.228
same,glycan array binding signal (z-score),Gal6P(b1-4)GlcNAc,-0.363
same,glycan array binding signal (z-score),Gal6S(b1-3)GlcNAc,0.001
same,glycan array binding signal (z-score),Gal6S(b1-3)GlcNAc6S,0.436
same,glycan array binding signal (z-score),Gal6S(b1-4)Glc,-0.266
same,glycan array binding signal (z-score),Gal6S(b1-4)Glc6S,-0.366
same,glycan array binding signal (z-score),Gal6S(b1-4)GlcNAc,-0.612
same,glycan array binding signal (z-score),Gal6S(b1-4)GlcNAc6S,-0.458
same,glycan array binding signal (z-score),GalNAc(a1-3)Gal,-0.131
same,glycan array binding signal (z-score),GalNAc(a1-3)GalNAc,-0.646
same,glycan array binding signal (z-score),[16],-0.602
same,glycan array binding signal (z-score),[17],-0.412
same,glycan array binding signal (z-score),GalNAc(b1-3)Gal,-0.441
same,glycan array binding signal (z-score),[18],0.333
same,glycan array binding signal (z-score),[19],-0.451
same,glycan array binding signal (z-score),[20],-0.396
same,glycan array binding signal (z-score),GalNAc(b1-3)GalNAc,-0.531
same,glycan array binding signal (z-score),GalNAc(b1-3)GlcNAc,-0.28
same,glycan array binding signal (z-score),GalNAc(b1-4)Gal(b1-4)Glc,0.126
